About 14,000 (4.5%) of roughly 310,000 compounds showed an effect of 50% or more. Effects have a minus sign here. The list shows a part of the results.
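Further: peak tail current of the secondary pulse compared with the same well before compound.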

The target of this test is human ether-à-go-go-related gene (hERG) potassium channel (human, UniProt Q12809). The experiment in a line: primary screen, population patch clamp on CHO cells stably expressing hERG.
human ether-à-go-go-related gene (hERG) potassium channel, sequence (Q12809 whole entry, looked up): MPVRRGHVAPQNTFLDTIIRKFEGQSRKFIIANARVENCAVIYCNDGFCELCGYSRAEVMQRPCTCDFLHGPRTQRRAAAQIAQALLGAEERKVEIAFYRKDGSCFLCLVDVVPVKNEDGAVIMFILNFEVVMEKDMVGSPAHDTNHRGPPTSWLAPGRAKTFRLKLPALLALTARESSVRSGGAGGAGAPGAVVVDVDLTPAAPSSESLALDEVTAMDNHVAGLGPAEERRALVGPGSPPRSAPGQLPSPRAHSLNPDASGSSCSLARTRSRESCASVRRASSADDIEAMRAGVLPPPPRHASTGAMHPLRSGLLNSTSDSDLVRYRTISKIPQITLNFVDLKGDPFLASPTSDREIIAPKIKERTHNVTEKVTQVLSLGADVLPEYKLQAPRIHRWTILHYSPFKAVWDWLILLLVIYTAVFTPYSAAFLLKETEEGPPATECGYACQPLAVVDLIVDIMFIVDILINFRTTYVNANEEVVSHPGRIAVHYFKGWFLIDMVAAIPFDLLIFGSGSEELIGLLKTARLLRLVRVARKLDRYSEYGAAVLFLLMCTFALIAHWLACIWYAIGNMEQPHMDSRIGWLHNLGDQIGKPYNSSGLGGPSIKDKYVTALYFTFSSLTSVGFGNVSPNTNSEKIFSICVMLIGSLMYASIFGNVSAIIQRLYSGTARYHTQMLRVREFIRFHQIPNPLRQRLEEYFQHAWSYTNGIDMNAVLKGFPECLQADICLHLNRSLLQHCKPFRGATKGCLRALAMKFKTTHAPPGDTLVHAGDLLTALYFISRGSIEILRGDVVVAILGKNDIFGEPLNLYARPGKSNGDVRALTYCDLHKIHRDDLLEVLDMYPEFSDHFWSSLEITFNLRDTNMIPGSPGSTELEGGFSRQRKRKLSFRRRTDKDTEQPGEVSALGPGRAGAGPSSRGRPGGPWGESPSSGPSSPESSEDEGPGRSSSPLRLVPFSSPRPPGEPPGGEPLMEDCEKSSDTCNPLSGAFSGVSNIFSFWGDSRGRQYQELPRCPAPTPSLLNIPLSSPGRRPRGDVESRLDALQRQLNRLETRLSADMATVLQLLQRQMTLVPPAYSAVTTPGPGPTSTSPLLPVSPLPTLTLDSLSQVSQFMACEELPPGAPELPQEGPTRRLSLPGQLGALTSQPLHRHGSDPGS
With `Cc1nc2ccccc2n1CC(=O)OCC(=O)NCc1ccccc1`, the “hERG current change (%, negative = inhibition) at 10uM” value is on record as 12.8%. For `CCCn1c(SCC(=O)Nc2cccc(S(=O)(=O)N3CCCC3)c2)n[nH]c1=O`, the “hERG current change (%, negative = inhibition) at 10uM” value is listed as 15.4%. `CC(C)(C)n1nc2c(c1NC(=O)Cc1ccc(F)cc1)CS(=O)(=O)C2`: the “hERG current change (%, negative = inhibition) at 10uM” value is reported as 0.588%. With `S=C(NCCc1ccccc1)N1CCn2cccc2C1c1cccnc1` (stereo not drawn), the “hERG current change (%, negative = inhibition) at 10uM” value is listed as -42%. Turning to `CCc1cc(CNC(=O)c2ccc(OC3CCN(C(C)=O)CC3)c(OC)c2)on1`, the “hERG current change (%, negative = inhibition) at 10uM” value is reported as 7.52%. To `CC(=O)C(C)Oc1ccc2c3c(c(=O)oc2c1C)CCCC3` (stereo not drawn) belongs -8.37%. In the case of `O=c1cc([O-])n(Cc2ccc(F)cc2)c(=O)[nH]1.[NH4+]`, the “hERG current change (%, negative = inhibition) at 10uM” value is 21.7%. Regarding `CC(C)(C)OC(=O)N/N=C\c1ccc(OC(=O)c2cccs2)cc1`, the “hERG current change (%, negative = inhibition) at 10uM” value was 4.54%.

On to `O=c1c2ccccc2nc(SCc2cn3ccsc3n2)n1-c1ccccc1`, for which the “hERG current change (%, negative = inhibition) at 10uM” value is given as -1.3%. As for `Cc1onc(C(=O)N2CCN(c3ccccc3F)CC2)c1-c1ccccc1Cl`, the “hERG current change (%, negative = inhibition) at 10uM” value is -7.76%. To `CCN(CC)CCCn1c2c(c(SCC(=O)Nc3ccc(F)c(F)c3)nc1=O)CCC2` belongs -55.1%; to `Cc1cccc[n+]1CC(=O)/C=C1\N(C)c2ccccc2C1(C)C.[Cl-]`, 23.5%. To `CC(NC(=O)c1cc2cc(Cl)ccc2oc1=N)c1ccccc1` (stereo not drawn) belongs 7.55%; to `COc1ccc([C@@H]2[C@@H]3C(=O)N(C(C)(C)C)C(=O)[C@@H]3[C@]3(CC(C)C)C(=O)N(c4ccccc4)C(=O)N23)cc1`, 4.63%. As for `O=C(CN1C(=O)C2C3CCC(C3)C2C1=O)OCC(=O)c1cccc([N+](=O)[O-])c1` (stereo not drawn), the “hERG current change (%, negative = inhibition) at 10uM” value is on record as 15.2%. Take `Cc1cc(OCc2ccc(C(=O)n3cccn3)o2)ccc1Cl`: the “hERG current change (%, negative = inhibition) at 10uM” value is listed as -0.553%. Turning to `Cc1cccc(-n2c(C)cc(/C=C3/C(=N)N4C(c5ccccc5)=CSC4=NC3=O)c2C)c1`, the “hERG current change (%, negative = inhibition) at 10uM” value is recorded as -1.18%. Regarding `O=C(O)C(Cc1ccccc1)NS(=O)(=O)c1ccc(Cl)cc1` (stereo not drawn), the “hERG current change (%, negative = inhibition) at 10uM” value is given as 18.1%. `CC(=O)c1ccc(N2C(=O)[C@@H]3[C@H](C2=O)[C@H]2c4ccccc4C=NN2[C@@H]3C(C)=O)cc1`: the “hERG current change (%, negative = inhibition) at 10uM” value turned out to be 25.3%. To `COc1ccc(C(CCN2CCOCC2)c2c(O)cc(OC)cc2OC)cc1` (stereo not drawn) belongs -47.1%. To `CCOc1ccc(C(=O)NCC(=O)N2CCC3(CC2)NCCc2[nH]cnc23)cc1` belongs 13.5%. In the case of `O=C(NNC(=O)c1ccco1)c1cccc(Br)c1` it was 0.684%.

Consider `O=C(/C=C/c1ccccc1Br)c1ccc2c(c1)OCO2`, for which the “hERG current change (%, negative = inhibition) at 10uM” value is recorded as 10.8%. On to `CCOC(=O)c1sc(NC(=O)c2ccccc2)cc1C`, for which the “hERG current change (%, negative = inhibition) at 10uM” value turned out to be 5.32%. In the case of `COc1ccc(N(C(=O)Cn2nnc(-c3ccc(F)cc3)n2)C(C)C(=O)NC2CCCC2)cc1OC` (stereo not drawn) it was 4.8%. Regarding `Cc1[nH][nH]c(=O)c1C(c1ccc(O)c([N+](=O)[O-])c1)c1c(C)[nH][nH]c1=O`, the “hERG current change (%, negative = inhibition) at 10uM” value was 18.8%. In the case of `CCC(=O)OCC(=O)[C@@]1(OC(=O)CC)[C@@H](C)C[C@H]2[C@@H]3CCC4=CC(=O)C=C[C@]4(C)[C@@]3(Cl)[C@@H](O)C[C@@]21C` it was 1.06%; in that of `Cn1cccc1Cc1nnc(SCC(=O)NCC2CCCO2)n1-c1ccc(F)cc1` (stereo not drawn), -1.48%; in that of `C=CCN1c2ccccc2[C@]23C[C@@H](C(=O)OC)N(C(=O)OCC)C2=NC(C(=O)OC)=C(C(=O)OC)[C@H]13`, -13.9%. In the case of `CCn1nc([N+](=O)[O-])c(C(C#N)c2nc3ccccc3n2C)c(Cl)c1=O` (stereo not drawn) it was 2.97%; in that of `Cc1cccc(NC(=O)CSCc2nc3c(nnn3Cc3ccc(F)cc3)c(=O)[nH]2)c1C`, -0.573%; in that of `COc1ccc(Oc2nccc(-c3ccc(Cl)cc3)n2)cc1`, -3.38%.

Turning to `CC1(C)Cc2nc3sc4c(=O)n(CC(=O)NCc5ccco5)cnc4c3cc2CO1`, the “hERG current change (%, negative = inhibition) at 10uM” value is recorded as -10.7%. As to `Cc1ccc(CC(=O)c2ccc(Cl)cc2)cc1`, the “hERG current change (%, negative = inhibition) at 10uM” value amounted to 10.8%. On to `CC1CCCCC1NC(=O)NC(=O)COC(=O)C1=NN(c2ccccc2)C(=O)CC1` (stereo not drawn), for which the “hERG current change (%, negative = inhibition) at 10uM” value was 4.08%. Take `Cn1c(=O)oc2cc(S(=O)(=O)N3CCC(C(=O)NCc4ccccc4)CC3)ccc21`: the “hERG current change (%, negative = inhibition) at 10uM” value is listed as -6.54%. In the case of `CCOC(=O)C(NC(C)=O)(Nc1ccc(S(=O)(=O)Nc2ccncn2)cc1)C(F)(F)F` (stereo not drawn) it was 6.66%; in that of `CC1CCC2(CC1)NC(=O)N(CC(=O)Nc1ccc3c(c1)OCCO3)C2=O` (stereo not drawn), 11.5%; in that of `CCc1cccc(CC)c1NC(=O)c1ccccc1`, 12%. As for `Cc1ccc(N(C(=O)CNC(=O)c2ccco2)C(C(=O)NC2CCCC2)c2cccnc2)cc1C` (stereo not drawn), the “hERG current change (%, negative = inhibition) at 10uM” value is -0.354%.

As for `CC(NC(=O)Cn1ccsc1=N)C12CC3CC(CC(C3)C1)C2.Cl` (stereo not drawn), the “hERG current change (%, negative = inhibition) at 10uM” value is recorded as -34.4%. `CCOc1ccccc1CN1C2CCC1CC(c1ccc(C)cc1)C2` (stereo not drawn): the “hERG current change (%, negative = inhibition) at 10uM” value was -60.9%. On to `Cc1cc2ccccc2n1CCNC(=O)c1ccc(Br)o1`, for which the “hERG current change (%, negative = inhibition) at 10uM” value is given as -7.12%.

In the case of `O=C(NCCc1cn2ccccc2n1)c1cc(COc2ccc3ncccc3c2)on1`, the “hERG current change (%, negative = inhibition) at 10uM” value is on record as -65.7%.

On to `Cc1cccc(C)c1NC(=O)N1CC=C(n2c(=O)[nH]c3ccccc32)CC1`, for which the “hERG current change (%, negative = inhibition) at 10uM” value is listed as 6.14%. For `O=C(CSC1=NNC(c2ccccn2)S1)Nc1cccc(Cl)c1` (stereo not drawn), the “hERG current change (%, negative = inhibition) at 10uM” value was determined as 12.6%. As to `Cc1ccc(C)c(NC(=O)CN(C)C(=O)c2ccc(Cl)nc2)c1`, the “hERG current change (%, negative = inhibition) at 10uM” value is -7.48%. Turning to `S=c1[nH]ccn1-c1c(Cl)cccc1Cl`, the “hERG current change (%, negative = inhibition) at 10uM” value is listed as 24.4%.

As to `CC(=O)c1ccc(N2CCN(S(=O)(=O)c3cn(C)c(C)n3)CC2)cc1`, the “hERG current change (%, negative = inhibition) at 10uM” value came out at 20.9%. In the case of `COc1ccc(CNCCC2(Cc3ccccc3)CC(C)N(C)CC2C)cc1OC.Cl` (stereo not drawn), the “hERG current change (%, negative = inhibition) at 10uM” value turned out to be 25.3%. In the case of `COCCN(CCOC)c1nc(-c2ccc(C)cc2)nc2ccccc12.Cl` it was -65.4%. On to `CN(C)S(=O)(=O)c1cc(C(=O)OCCn2cnc3c2c(=O)n(C)c(=O)n3C)ccc1Cl`, for which the “hERG current change (%, negative = inhibition) at 10uM” value is -39.7%. For the molecule `CCCCn1c(N)c(N(CC)C(=O)CSCc2c(C)noc2C)c(=O)[nH]c1=O`, the “hERG current change (%, negative = inhibition) at 10uM” value is on record as 7.15%.

Take `O=C(NCCCCNC(=O)c1ccccc1F)c1ccccc1F`: the “hERG current change (%, negative = inhibition) at 10uM” value is listed as 14.8%. On to `COc1cccc(-c2csc(N3CCN(S(=O)(=O)c4ccc(F)cc4)CC3)n2)c1`, for which the “hERG current change (%, negative = inhibition) at 10uM” value was -10.2%.

For the molecule `Cc1cc(Cl)ccc1OCC(=O)OCC(=O)c1c(N)n(C)c(=O)n(C)c1=O`, the “hERG current change (%, negative = inhibition) at 10uM” value is recorded as -26.5%. On to `Cc1ccc(NS(=O)(=O)c2cc(C(=O)OCC(=O)NCC3CCCO3)ccc2C)cc1` (stereo not drawn), for which the “hERG current change (%, negative = inhibition) at 10uM” value is listed as -7.69%. In the case of `O=S(=O)(c1ccccc1)N1CCN(CC(O)COc2ccc3c(c2)CCC3)CC1` (stereo not drawn) it was -28.7%; in that of `Cc1ccc(S(=O)(=O)NCCC(=O)N2CC(C)OC(C)C2)cc1` (stereo not drawn), 16.7%; in that of `CCc1cccc2c(C(=O)CSc3nncn3C)c[nH]c12`, 7.69%. To `COc1ccc(-c2nc3c(n2O)CCc2c-3no[n+]2[O-])cc1` belongs 10.6%; to `COc1cccc(C(=O)Nc2c(C)nn(-c3ccccc3)c2C)c1`, 11.3%.

For `Cl.Fc1ccc(Nc2nc(N3CCOCC3)c3ccccc3n2)cc1`, the “hERG current change (%, negative = inhibition) at 10uM” value was -2.91%. On to `CCN(CC(=O)NC(C)(C)C)C(=O)CN1c2cccc3cccc(c23)S1(=O)=O`, for which the “hERG current change (%, negative = inhibition) at 10uM” value was determined as 15.5%. `CSc1nnc(-c2cc3ccccc3cc2O)n1C`: the “hERG current change (%, negative = inhibition) at 10uM” value is on record as -11%. In the case of `O=CN1CCN(C(=O)c2cccc([N+](=O)[O-])c2)CC1` it was -4.11%; in that of `CCCCN(CC)CCCNC(=S)Nc1ccc2nc(N3CCN(C)CC3)cc(C)c2c1`, 5.19%; in that of `COC(=O)c1ccc(NC(=O)CCN2CCN(CCC(=O)Nc3ccc(C(=O)OC)cc3)CC2)cc1`, -15.4%. With `CCC(=O)c1ccc(OCC(=O)OCC(=O)N2CCN(c3ccc(OC)cc3)CC2)cc1`, the “hERG current change (%, negative = inhibition) at 10uM” value came out at 19%.

With `CCC(Oc1ccccc1)C(=O)Nc1ccccc1C(=O)N1CCCCC1` (stereo not drawn), the “hERG current change (%, negative = inhibition) at 10uM” value is recorded as -9.09%. Consider `CCCC(=O)Nc1nc2n(n1)C(c1ccccc1)CC(=O)N2` (stereo not drawn), for which the “hERG current change (%, negative = inhibition) at 10uM” value is -1.76%.

Consider `CN(C)C1C(=O)c2ccccc2C1=O`, for which the “hERG current change (%, negative = inhibition) at 10uM” value is -7.61%. `COCCNCCCOc1ccc(C(C)(C)c2ccccc2)cc1.O=C(O)C(=O)O`: the “hERG current change (%, negative = inhibition) at 10uM” value is recorded as -29.3%. In the case of `CCCCN(C)Cc1c(C)[nH]c2ccccc2c1=O` it was -2.26%; in that of `COC(=O)CNC(=O)COC(=O)/C=C/c1ccc(F)cc1`, 9.43%.

Regarding `O=P(/C(=N/O)N1CCCCC1)(N1CCOCC1)N1CCOCC1`, the “hERG current change (%, negative = inhibition) at 10uM” value is on record as 2.31%. For the molecule `Cc1nn(CC(=O)NCCN2CCOCC2)c(C)c1[N+](=O)[O-]`, the “hERG current change (%, negative = inhibition) at 10uM” value was 34.8%. `Cc1cc(C2C(C#N)=C(N)OC3=C2C(=O)CCC3)c(C)s1` (stereo not drawn): the “hERG current change (%, negative = inhibition) at 10uM” value was -9.38%.

Regarding `O=C(COC(=O)c1ccc(S(=O)(=O)N2CCc3ccccc3C2)cc1)NC(=O)NCc1ccco1`, the “hERG current change (%, negative = inhibition) at 10uM” value is 13.5%. Take `O=C(O)CCN1C(=O)C2C3CC(C2C1=O)C1C(c2ccccc2)c2sc(=O)n(-c4ccccc4)c2SC31` (stereo not drawn): the “hERG current change (%, negative = inhibition) at 10uM” value is listed as 10.7%. `COc1ccc(CN(C)C(=O)c2[nH]c(C)c(C(C)=O)c2C)cc1F`: the “hERG current change (%, negative = inhibition) at 10uM” value is on record as 5.77%. In the case of `O=C(Nc1ccc(N2CCOCC2)cc1)c1cccc(S(=O)(=O)N2CCCCCC2)c1` it was 14.3%; in that of `CC(=O)C[C@@H](O)CC(=O)[C@H]1OC(=O)CCCCCCc2ccccc21`, -2.65%; in that of `CS(=O)(=O)c1nc2ccccc2n1Cc1ccccc1`, -11.8%.

Values taken from article PMC4336329 (PLoS ONE, 2015).
